This note sets out measurements from publication PMC10502023, “N-terminal α-amino SUMOylation of cofilin-1 is critical for its regulation of actin depolymerization” (Nature Communications, 2023).

The assay has as its target F-actin (actin from rabbit muscle, polymerized) (rabbit, UniProt P68135). Put plainly: co-sedimentation; 5 μg CFL1 protein with 10 μg F-actin in 200 μl of 10 mM Tris-HCl (pH 8.0), 30 min at room temperature; 100,000 × g at 4 °C for 30 min; supernatant and pellet on SDS-PAGE, CBB stain. The following applies: both partners purified.

B1: purified recombinant CFL1^2KR (K112R/K114R) (natural protein)
chain: not shown
notes: cofilin-1 (CFL1), mouse, K112R/K114R; The methods describe one way of purification for the wild type and all mutants; source: E. coli BL21 (DE3), purified; not shown: 6xHis, N-terminal, cleaved; SUMO3, N-terminal, cleaved
On to B1, for which the binding result was “binds”.
